The campaign covered roughly 48,000 compounds. About 450 (0.94%) were called active. Roughly 19% stayed inconclusive and do not appear here. The call rests on the fitted dose curve; in most records, active means well fitted inhibition curve with a large enough effect; inconclusive means small, poorly fitted or top-dose-only effect; inactive means no such curve, though single readings can be large or run the other way. Some of the results follow.
test: Primary qHTS for Identification of Small Molecule Inhibitors of Huntingtin Promoter Activity; conditions: HEK293 HTT promoter firefly luciferase reporter (activity 0% = vehicle and -100% = no light), 24 h; series mostly up to 57.5 µM; activity change, negative = inhibition: at the top concentration; further: nearly all actives have a fitted effect of over 50% in size
How it was run: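 Quantitative HTS used concentration series of up to 57.5 uM final on HEK293 luciferase reporter cells, 24 h at 37 degrees C. Readout was Dual-Glo firefly luminescence.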

Activity change, negative = inhibition, inactive:
COc1ccc(-c2nc(CS(=O)(=O)CC(=O)NCc3ccccc3Br)c(C)o2)cc1 -15.1%
Cc1ccc(CNC(=O)CCCn2c(=O)c3ccccc3n(CC(=O)Nc3ccc(C)cc3)c2=O)cc1 -1%
CCC(C(=O)Nc1ccc(C)c(C)c1)n1c(=O)c(C(F)(F)F)nc2ccccc21 (configuration not stated) -5.36%
CCOC(=O)c1c(NC(=O)COc2ccc(Cl)cc2C)sc2c1CCCCC2 2.35%
Cc1ccc(CNC(=O)CS(=O)(=O)c2cccc3nsnc23)cc1 1.73%
COc1cccc(NC(=O)Cn2c(=O)n(CCC(=O)NCCc3ccc(Cl)cc3)c(=O)c3ccccc32)c1 -13.1%
COc1ccc(CCNC(=O)Cc2c(C)c3cc4c(C(C)(C)C)coc4c(C)c3oc2=O)cc1 -9.2%
COc1cc(-c2noc(-c3ccc(NCC4CCCO4)c([N+](=O)[O-])c3)n2)cc(OC)c1OC (configuration not stated) -16%
Cc1ccc(C)c(Nc2cc(C(=O)NC3CCCC3)c3ccccc3n2)c1 7.46%
COc1cc(NC(=O)CSc2nc3ncccc3o2)cc(OC)c1 -5.99%
Cl/C(=C\n1cncn1)c1ccc(Cl)cc1Cl 4.49%
COc1cc(NC(=O)CN2CCN(c3ccc(F)cc3)CC2)cc(OC)c1 -17.7%
Cc1nn(CC(=O)NC2CCC(C)CC2)c(=O)c2c1sc1ccccc12 (configuration not stated) -1.83%
CCn1cc2nc(SCC(=O)Nc3cc(OC)cc(OC)c3)n(Cc3ccc(Cl)cc3)c(=O)c2n1 -22.8%
Cc1ccc2oc(-c3ccc(NC(=O)CCC(=O)O)cc3)nc2c1 18%
Cc1ccc(NC(=O)CCc2c(C)nc3c(-c4ccc(F)cc4)c(C)nn3c2C)cc1F -8.86%
Cc1cc(C)c(Nc2ncnc3c2cnn3C)c(C)c1 -25.3%
O=C(/C=C/c1ccccc1Cl)N1CCC(c2nc3ccccc3o2)CC1 -20%
CCOc1ccc(NC(=O)c2sc3nc4n(c(=O)c3c2C)CCC4)cc1 4.75%
COC(=O)N1CCCc2cc(S(=O)(=O)NCc3ccccc3)ccc21 -19.1%
Cc1cccc(C)c1NC(=O)c1ccc2c(c1)nnn2C1CCCC1 -4.8%
CCOc1cc(-c2ccc(OC(=O)c3ccccc3Cl)c(OC)c2)cc(=O)c2c(C)oc(C)c12 -5.96%
COc1ccc(-c2nn3c(=O)cc(CN4CCN(C(=O)/C=C/c5ccccc5)CC4)nc3s2)cc1 -15.3%
COc1ccc(C2CC(=O)Nc3c2c(=O)[nH]c2nc4ccccc4n32)cc1 (configuration not stated) -14.8%
Cc1cc(C)cc(NC(=O)CSc2nc3c(c(=O)[nH]2)CN(Cc2ccc(F)cc2)CC3)c1 -31.8%
CCn1cc(C(=O)Nc2cccc(Cl)c2)c2cc(OC)c(OC)cc2c1=O -19.7%
Cc1ccccc1COC(=O)c1nn(-c2ccccc2)nc1N 29.8%
COc1ccccc1N1CCN(C(=O)Cn2c(=O)n3nc(-c4cccc(F)c4)nc3c3ccccc32)CC1 10.7%
CCNC(=O)c1ccc(NC(=O)N2CCCCc3ccccc32)cc1 -11.3%
CCCCN(CC)CCNC(=O)C1CCN(S(=O)(=O)c2cccc3nsnc23)CC1 1.54%
CCc1nn(CC(=O)N2CCN(c3ccc(OC)cc3)CC2)c(=O)c2cc3sccc3n12 -12.5%
CC[C@@]1(c2ccccc2)NC(=O)N(C)C1=O -2.65%
CC(CCc1ccccc1)NC(=O)Cn1ncc2c3ccccc3n(Cc3ccccc3F)c2c1=O (configuration not stated) 15.4%
CCC(=O)C1=C(c2ccc(F)cc2)N(C(=O)CC)n2c(nnc2-c2ccc(OC)cc2)S1 -5.78%
O=C(CSc1nccn1-c1cccc(Cl)c1)Nc1ccc2c(c1)OCO2 -18.2%
COc1ccc(-c2cnc(C)o2)cc1S(=O)(=O)Nc1ccc(NC(C)=O)cc1 -5.7%
O=C(CCn1c(=O)c2cccn2c2cccnc21)N1CCN(c2ccccc2)CC1 -1.01%
Cn1c(=O)oc2cc(S(=O)(=O)CCC(=O)N3CCN(c4ccccc4F)CC3)ccc21 -14% [at 11.5 µM]
CCn1c(SCC(=O)Nc2ccccc2C(=O)OC)nc2ccsc2c1=O -7.46%
Cc1ccc(-c2cc(C(=O)Oc3ccc(C#N)cc3)no2)cc1 31.9%
CCC(=O)NNc1ncnc2c1cnn2-c1ccc(C)c(Cl)c1 -30.7%
O=C(CSc1nc(=O)[nH]c2c1CCC2)NCc1ccccc1Cl -4.17%
CCN(Cc1ccccc1)C(=O)Cn1c(=O)n(-c2ccccc2)c(=O)c2c1c1cc(C)ccc1n2C -15.1%
Cc1nc2ccccc2c(=O)n1-c1ccc(NC(=O)c2ccccc2[N+](=O)[O-])cc1 -1.02%
CCc1ccc(CSc2nc(-c3ccccc3F)nc3c2Cc2c(CO)cnc(C)c2O3)cc1 -7.82%
COc1ccc(OC(=O)c2nc(SCc3ccccc3F)ncc2Cl)cc1 -2.61%
Cc1ccc(NC(=O)Cn2c(=O)n(Cc3ccco3)c(=O)c3oc4ccccc4c32)cc1C -1.94%
CCC(C)NC(=O)c1nn(-c2ccc(C)cc2)nc1CO (configuration not stated) -2.32%
Cc1cccc(CN2C(=O)c3ccccc3Sc3ccc(C(=O)NC4CCCCC4)cc32)c1 -9.06%
Cc1cccc(CNC(=O)C2CCC(CNS(=O)(=O)c3ccc4c(c3)CCCC(=O)N4)CC2)c1 (configuration not stated) -14.2%
Cc1cc(Nc2ccccc2C)c2cccc(C)c2n1 -11.2%
COCCCN1CCC(NC(=O)c2cc(Cl)c(N)c3c2OCC3)CC1
CCC(C)n1c(SCC(=O)Nc2ccccc2C(=O)OC)nc2ccsc2c1=O (configuration not stated) -6.97%
CCc1ccc(NC(=O)C2CCCN(S(=O)(=O)c3ccc4c(c3)oc(=O)n4C)C2)cc1 (configuration not stated) -16.9%
Cc1ccc(C(=O)NCC(c2ccc(Cl)cc2)N2CCCCC2)cc1 (configuration not stated) -17.6%
COCCCNC(=O)CCCn1c(SCC(=O)c2ccc(Br)cc2)nc2c(sc3ccccc32)c1=O -3.52%
Cc1ccc(Cl)c2sc(NC(=O)c3ccc(S(=O)(=O)N4CCCC4)cc3)nc12 -11.2%
COc1cccc(CNC(=O)c2cccc(N3CCCS3(=O)=O)c2)c1 -29.3%
Cc1ccc(C)c(NC(=O)CSc2nc3ccccc3nc2N2CCOCC2)c1 -1.18%
CC(C)(C)OC(=O)N1CCC(c2c(C(=O)N3CCCCC3)cnn2-c2ccc(F)cc2)CC1 -7.5%
COC(=O)c1ccc(NC(=O)c2cnn(-c3ccc(Cl)cc3)c2C2CCN(C(=O)OC(C)(C)C)CC2)cc1 5.5%
COc1ccccc1C(=O)Nc1cccc(OCc2cc(=O)n3ccccc3n2)c1 22%
